Measurements as given in PubChem BioAssay AID1159614 (National Center for Advancing Translational Sciences (NCATS), 2016).
In all, about 45,000 compounds went through this assay and about 65 (0.1%) were called active. Calls follow the shape of the dose curve; as a rule, active = well fitted activation curve with a large enough effect; inconclusive = small, poorly fitted or top-dose-only effect; inactive = no such curve, though single readings can be large or run the other way. The list shows a part of the results.

biological target: Galactocerebrosidase (Homo sapiens) (UniProt P54803); experiment: A Novel Cell-Based Assay to Identify Small Molecules for B -Galactocerebrosidase; settings: 145M-Twi-hGALC-G270D cells (Twitcher mouse brain line with human GALC G270D), HMU-beta-Gal fluorescence, 48 h; series mostly up to 57.5 µM; activation: at the top concentration; also: 0% is about no effect; nearly all actives have a fitted effect of over 65% in size
How it was run: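 Fluorogenic HMU-b-Gal hydrolysis (0.1 mM final, pH 5.2 citrate-phosphate with 1 mg/mL sodium taurocholate; carbonate stop buffer) measures mutant GALC activity after compound treatment of live 145M-Twi Twitcher brain cells stably carrying human GALC-G270D, with wild-type GALC line alongside; activation sought.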

Chain of UniProt P54803 (P54803 whole entry, looked up): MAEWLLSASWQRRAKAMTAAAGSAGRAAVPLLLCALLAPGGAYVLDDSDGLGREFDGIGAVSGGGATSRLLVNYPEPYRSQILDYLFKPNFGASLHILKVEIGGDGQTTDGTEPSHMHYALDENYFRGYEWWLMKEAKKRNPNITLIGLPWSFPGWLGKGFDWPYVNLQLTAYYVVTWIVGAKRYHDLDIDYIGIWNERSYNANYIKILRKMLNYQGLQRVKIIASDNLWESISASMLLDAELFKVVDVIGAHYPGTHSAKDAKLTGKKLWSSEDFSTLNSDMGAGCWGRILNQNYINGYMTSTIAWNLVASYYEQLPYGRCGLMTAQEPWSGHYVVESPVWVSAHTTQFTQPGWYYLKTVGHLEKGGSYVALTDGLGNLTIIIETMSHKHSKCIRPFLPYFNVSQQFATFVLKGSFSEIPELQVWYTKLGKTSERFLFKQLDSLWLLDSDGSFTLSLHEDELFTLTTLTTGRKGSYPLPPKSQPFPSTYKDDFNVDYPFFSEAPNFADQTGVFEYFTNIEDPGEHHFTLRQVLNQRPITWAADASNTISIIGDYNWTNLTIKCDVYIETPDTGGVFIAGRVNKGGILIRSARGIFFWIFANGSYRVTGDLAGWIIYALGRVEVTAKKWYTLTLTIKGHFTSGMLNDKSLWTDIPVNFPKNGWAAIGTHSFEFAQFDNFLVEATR

activation, inactive:
Cc1cc(C)n(-c2nc(C)c(C)c(=O)n2CC(=O)Nc2ccc([N+](=O)[O-])cc2)n1 -2.56%
Cc1ccc(-n2ncc3c(NCCCN4CCOCC4)ncnc32)cc1C 4.53%
CCOC(=O)c1ccc(NC(=O)CCCn2c(=O)c3cccn3c3ccccc32)cc1 -12.2%
Cc1ccccc1Nc1c(-c2c(F)cccc2Cl)nc2ccc(Br)cn12 -13.8%
Cc1c(C(=O)Nc2cccc(C(F)(F)F)c2)sc2nc[nH]c(=O)c12 -31%
CC(C)c1ccc(NC(=O)Cn2c(=O)n(CC3CCC(C(=O)NCCc4ccccc4)CC3)c(=O)c3ccccc32)cc1 (stereo not given) -8.34%
Cc1c(C(=O)N2CCOCC2)oc2c1-c1nn(CC(=O)NCc3cccc(F)c3)cc1CC2 -12.4%
COC(=O)c1ccc(Cl)cc1NC(=O)NCCc1c(C)nn(C)c1C -6.4%
COc1ccccc1CNC(=O)Cn1c(=O)nc(-c2ccccc2F)c2cc(Cl)ccc21 -20.6%
Cc1ccc(-n2c(=O)c3cccnc3n2CC(=O)Nc2cc(C)cc(C)c2)cc1 -16.3%
COc1ccc(OC)c(C(=O)CC2(O)C(=O)N(Cc3ccccc3C)c3ccccc32)c1 (stereo not given) -10.7%
Cc1ccc(/C=C(\C#N)c2nc(-c3ccc(-c4ccccc4)cc3)cs2)cc1 -7.4%
Cc1ccc(S(=O)(=O)C2(C(=O)Nc3ccc(Cl)c(C(F)(F)F)c3)CC2)cc1 -5.46%
CCOC(=O)c1cccc(NC(=O)CCS(=O)(=O)c2ccc3c(c2)CC(=O)N3C)c1 -1.7%
Cc1ccc(Cl)cc1N1CCN(C(=O)C2CCC(CNS(=O)(=O)c3cccs3)CC2)CC1 (stereo not given) -3.9%
CCOC(=O)c1c(C)[nH]c(C)c1S(=O)(=O)N1CCC(C(=O)Nc2cc(C)ccn2)CC1 -11.1%
Cc1cccc(N2CCN(C(=O)CS(=O)(=O)c3cccc4nsnc34)CC2)c1C -8.43%
Cc1ccc(CNc2ccc(-c3nc(-c4ccncc4)no3)cc2[N+](=O)[O-])cc1 1.79%
COc1ccc(-n2ccnc2SCC(=O)Nc2ccc3c(c2)OCO3)cc1 -3.63%
CC(C)(C)C1CCc2c(sc(NC(=O)Cn3nnc(-c4ccccc4Cl)n3)c2C#N)C1 (stereo not given) -17.9%
CCc1ccccc1N(CC)C(=O)c1c(C)oc2ncn(C)c(=O)c12 -17%
Cc1ccc(-c2nc(S(=O)(=O)c3ccccc3)c(N3CCN(c4ccccc4)CC3)o2)cc1 -9.03%
CCc1ccccc1NS(=O)(=O)c1ccc2[nH]cc(C(=O)N(CC(C)C)CC(C)C)c(=O)c2c1 -0.668%
Cc1ccc2nc(COc3ccccc3NC(=O)COc3ccc(F)cc3)cc(=O)n2c1 -6.14%
CCc1ccc2nc(N(CCN(CC)CC)C(=O)c3cccs3)sc2c1 -14.8%
O=C(Nc1ccccc1C(=O)OCc1cc(=O)n2c3c(sc2n1)CCCC3)c1ccc(F)cc1 -12.5%
COc1ccc(NC(=O)C2CCN(S(=O)(=O)c3ccc4c(c3)CCCC(=O)N4)CC2)cc1OC -1.51%
Cc1cccc(C(C)C)c1NC(=O)Cn1c(=O)oc2cc(S(=O)(=O)N3CCCC3)ccc21 -13.2%
COc1ccc(-c2nc(SCC(=O)Nc3ccc4c(c3)OCCO4)c(-c3ccc(F)cc3)[nH]2)cc1 -11%
COc1cccc(C(=O)Nc2nc3nc(-c4ccccc4)cc(=O)n3[nH]2)c1 -23.2%
CC(=O)c1ccc(NC(=O)CN2C(=O)CN(C)C(=O)c3ccccc32)cc1 -12.5%
COc1ccc(-c2oc3ncn4nc(COc5cccc(C)c5C)nc4c3c2-c2ccc(OC)cc2)cc1 -15.9%
COc1cc(Nc2nc(SCc3ccc(Cl)cc3)nc3ccccc23)cc(OC)c1 -6.9%
COc1cccc(CNC(=O)C2=C(C)C(=O)OC23CCN(C(C)=O)CC3)c1OC -4.55%
O=C1c2oc3ccccc3c(=O)c2C(c2cccc(O)c2)N1c1nncs1 (stereo not given) 2.18%
O=C(Cn1c(=O)nc(-c2ccccc2)c2ccccc21)NCCc1ccccc1 -8.34%
CCOC(=O)c1c(-c2ccc(C)cc2)csc1NC(=O)c1cc(=O)c2cc(C)ccc2o1 5.27%
O=C(COCc1cc(-c2cccs2)on1)N1CCN(c2ccccc2)CC1 -19.5%
COc1cc(C(=O)Nc2ccc(NC(=O)c3ccc(C(C)(C)C)cc3)cc2)cc(OC)c1OC -23.8%
CCC(C(=O)NCc1cc(OC)ccc1OC)n1nc(C)c2sc3ccccc3c2c1=O (stereo not given) -1.06%
CN(C)c1cccc(C(=O)N2CCC(c3c[nH]c4ccccc34)(c3c[nH]c4ccccc34)CC2)c1 0.386%
Cc1cccc(CNC(=O)c2ccc(N3Cc4ccccc4Oc4ncccc43)s2)c1 -19%
COc1cccc(C(=O)N2CCC(C(=O)Nc3cccc(Cl)c3)CC2)c1 2.35%
COc1ccc(OC)c(CNC(=O)C2CCCN(c3ncnc4onc(-c5ccc(F)cc5)c34)C2)c1 (stereo not given) -11.6%
Fc1ccc(NCc2nnc3n2CCCCC3)cc1Cl -14.8%
COc1ccccc1C(=O)Nc1ccc2nc(SCCOc3ccccc3C)sc2c1 -18.3%
CC(C)c1ccc(N2C(=O)CSC23C(=O)N(Cc2cccc(F)c2)c2ccccc23)cc1 (stereo not given) -36.8%
COCc1cc(C)nc2c1C(=O)NC(c1ccc(C)cc1)N2Cc1ccccc1 (stereo not given) -8.19%
O=C(CSc1cn(CC(=O)N2CCCCC2)c2ccccc12)NCc1ccccc1 0.529%
CCOc1ccc(-c2nnc(SCC(=O)NCc3ccccc3Cl)o2)cc1 -7.43%
CCCN1C(=O)c2[nH]nc(-c3ccccc3)c2C1c1cccc(O)c1 (stereo not given) -6.52%
CCN(CC)CCNC(=O)C(=O)NCC(c1ccc2c(c1)OCO2)N1CCOCC1 (stereo not given) -1.85%
CCOc1ccc(S(=O)(=O)N2CCN(c3cccc(C(F)(F)F)c3)CC2)cc1OCC -23.3%
COc1ccc2c(c1)CCc1sc(NC(=O)c3cccc(Br)c3)nc1-2 -12.9%
COc1ccccc1NC(=O)CSC1=Nc2ccccc2C2=NC(Cc3ccccc3)C(=O)N12 (stereo not given) -7.04%
CCOc1ccc(CNC(=O)C2CCN(c3nnc(-n4c(C)ccc4C)s3)CC2)cc1 -40.5%
Cc1ccc(NC(=O)c2oc3ccccc3c2NC(=O)Cc2ccccc2)cc1 -12.3%
Cc1ccc(-c2onc(C)c2C)cc1S(=O)(=O)NCc1ccc(N(C)C)cc1 -14.6%
CCc1ccc(NC(=O)Cn2c(=O)n(CCCCC(=O)NCc3ccccc3Cl)c(=O)c3ccccc32)cc1 -11.1%
CCc1nc2c(cnn2-c2ccc(C)cc2)c(=O)n1Cc1ccccc1 -4.03%
